PubChem BioAssay AID1240 (Sanford-Burnham Center for Chemical Genomics, 2008)
In all, about 50,000 compounds went through this assay and about 800 (1.6%) showed an effect of 50% or more. This is one part of the list.

These compounds were tested against Bcl-2-like protein 10 (Homo sapiens) (UniProt Q9HD36) (assay: Phenotype converters, Bcl-B/TR3 peptide binding displacement, primary biochemical FP (AID 1240;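 further: 0% = Bcl-B with tracer peptide and DMSO and 100% = tracer peptide lacking Bcl-B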)). Conditions: GST-Bcl-B / FITC-TR3 peptide fluorescence polarization; stronger effect = higher value; compound at 3.75 mg/L.
Chain of UniProt Q9HD36 (Q9HD36 whole entry, looked up): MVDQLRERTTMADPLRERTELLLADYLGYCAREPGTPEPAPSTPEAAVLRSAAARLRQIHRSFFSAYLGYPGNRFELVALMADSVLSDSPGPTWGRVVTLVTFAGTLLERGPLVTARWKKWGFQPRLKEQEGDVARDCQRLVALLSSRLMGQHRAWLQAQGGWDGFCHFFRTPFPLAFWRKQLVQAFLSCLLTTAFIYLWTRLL

Structure (SMILES) | displacement [%]
COc1cc(C=C2C(=O)NC(=O)NC2=O)cc([N+](=O)[O-])c1O | 7
CC(Oc1ccccc1)C(=O)Nc1c(Cl)cccc1Cl (stereo not given) | 0.5
Oc1cccc(/C=N/Nc2nc(N3CCOCC3)nc(N3CCOCC3)n2)c1 | 10.8
Clc1cccc(OCCCN2CCOCC2)c1Cl | -6.4
COc1ccc(C(=O)/C=C/c2ccc(-c3ccccc3[N+](=O)[O-])o2)cc1 | 13.8
CC1=C(C(=O)OC(C)C(C)(C)C)C(c2ccc(Cl)cc2)NC(=O)N1 (stereo not given) | 1.9
Cc1ccc(N2C(=O)C3C(C2=O)C2C=CC3C23CC3)cc1Cl (stereo not given) | 6.2
CCn1c(=O)c(-c2nc3ccccc3[nH]2)c(O)c2ccccc21 | 26
CCOC(=O)CSc1nc(C)c2ccccc2n1 | 8.6
CCCCc1c(C)[nH]c2ccc(C(=O)O)cc2c1=S | 5.7
CC(=O)N1CCN(c2cc(N3CCCCC3)c(F)cc2[N+](=O)[O-])CC1 | -1.1
O=[N+]([O-])c1cc(NS(=O)(=O)c2cc(Cl)ccc2Cl)ccc1Cl | -7.2
CCCNC(=O)c1cc2nc(-c3ccc(OC)cc3)cc(C(F)(F)F)n2n1 | 14.5
COc1ccc(N(CC(=O)Nc2ccccc2C)S(=O)(=O)c2ccccc2)cc1Cl | 12.4
Cc1ccc(N2C(=O)C3C(C2=O)N2CCCN2C3c2ccccc2)cc1 (stereo not given) | 1.9
O=C(Cc1ccccc1)NN=C1c2ccccc2-c2ccccc21 | 5.3
COCC(O)CSCc1ccccc1 (stereo not given) | -3.9
O=C(Nc1ccc(Oc2ccccc2)cc1)Nc1cc(F)c(F)cc1Cl | -12.3
CC(C)(C)c1cc2c(c(C(C)(C)C)c1)OC(c1ccco1)N2 (stereo not given) | -7.4
CNC(=O)c1c(NC(=O)c2ccccc2F)sc2c1CCCCC2 | -7.9
COc1c(Cl)cc(C(=O)Nc2ccc(N3CCCCC3)cc2)cc1Cl | 25.2
C=CC(=O)NC(NC(=O)C=C)c1ccc(OC)cc1 | 9.7

Structure (SMILES) | displacement [%]
CCOC(=O)c1ccc(NC(=O)CCCOc2ccccc2)cc1 | -18.5
CCOC(=O)C1=C(C)N=c2s/c(=C\c3ccc([N+](=O)[O-])o3)c(=O)n2C1c1ccc(OC)cc1 (stereo not given) | 7.1
COc1ccc(C2CC(=O)C3=C(C2)Nc2ccccc2NC3c2cccs2)cc1OC (stereo not given) | -4.5
O=C(CN(c1ccccc1)S(=O)(=O)c1ccccc1[N+](=O)[O-])Nc1cccc(Cl)c1 | 13.2
O=C1/C(=C/c2cccnc2)SC(=S)N1Cc1ccco1 | 10.7
CCc1c(C)[nH]c2c(C)cccc2c1=O | -9.4
COc1ccc(Cl)cc1NC(=O)C1=C(C)NC(=O)NC1c1ccc(Br)cc1 (stereo not given) | 14
COC(=O)c1ccc(NC(=O)c2ccc(OCC(C)C)cc2)cc1 | -7.7
O=C(/C=C/c1cccc([N+](=O)[O-])c1)Nc1ccc(OC(F)(F)F)cc1 | 4.8
CSCCC(NC(=O)/C(=C\c1cccc([N+](=O)[O-])c1)NC(=O)c1ccccc1)C(=O)O (stereo not given) | 1.8
CCOc1ccc(N(CC(=O)Nc2c(C)cccc2C)S(=O)(=O)c2ccc(SC)cc2)cc1 | 9.6
Oc1cccnc1-c1ccccc1 | 2.1
O=C(Nc1ccccc1-c1ccccc1)c1ccc([N+](=O)[O-])cc1 | 0.9
COC(=O)c1c(-c2ccc(C3CCCCC3)cc2)csc1N | -4
CCOc1ccc(C(=O)COC(=O)c2ccccc2Br)cc1 | -0.5
CSc1nnc2sc3ccccc3n12 | 0.4
O=C(c1ccc([N+](=O)[O-])cc1Cl)N1CCN(c2ccccc2)CC1 | -8.9
O=C(Nc1nnc(-c2ccc([N+](=O)[O-])cc2)s1)c1cccs1 | 8.7
CCN(CC)S(=O)(=O)c1ccc(NC(=O)C(F)(F)F)cc1 | -0.3
COc1ccc(N(CC(=O)NCC2CCCO2)S(=O)(=O)c2ccc(C)cc2)cc1 (stereo not given) | -0.5
O=C(NC(c1ccccc1)C(Cl)Cl)c1ccccc1 (stereo not given) | 2
O=C(CC1Sc2ccc(C(F)(F)F)cc2NC1=O)Nc1ccccc1 (stereo not given) | 1.9

Structure (SMILES) | displacement [%]
O=[N+]([O-])c1ccc(C=Nc2cc3c(cc2Br)OCCO3)cc1 | 13.2
O=c1oc2c(CN3CCOCC3)c(O)ccc2cc1-c1nc2ccccc2s1 | 118
COc1ccccc1CNC(=O)c1ccc(CN(c2ccccc2)S(C)(=O)=O)cc1 | 0.4
Cc1nnc(N/N=C/c2cccc(Br)c2)[nH]c1=O | -9.5
O=C(/C=C/c1ccccc1Cl)Nc1ccc(F)c(F)c1 | 9.7
O=C(CSc1cc(Cl)ccc1Cl)Nc1ccccc1Br | 12.9
COc1ccccc1C(=O)Nc1ccc2c(c1)OCO2 | 4.5
CCCN(CCC)CCSc1nc(O)c(C(C)C)c(=O)[nH]1 | -3.1
COc1ccc(N2C(=O)NC(=O)/C(=C/c3cc(Cl)c(O)c(OC)c3)C2=O)cc1 | -15.5
Cc1nc2cc(-c3ccccc3Cl)[nH]n2c(=O)c1C | 13.6
CCCCn1c(CCCO)nc2ccccc21 | 7.2
COc1ccc(N2C(=O)CC(N(CCc3ccccc3)C(=S)Nc3ccccc3)C2=O)cc1 (stereo not given) | -12.8
COc1ccc(NC2=NC3(CCCC3)N=C(N)N2)cc1 | -6.7
CCc1c(C)sc(NC(=O)C2CCCCC2C(=O)O)c1C(N)=O (stereo not given) | 2.9
O=c1c(Oc2ccccc2Br)c(C(F)(F)F)oc2cc(O)ccc12 | 3
Cc1ccc(-c2nc3cc(Cl)ccc3o2)cc1NC(=O)C(Cl)(Cl)Cl | 2.9
O=C1C(=O)N(c2ccccn2)C(c2cccnc2)/C1=C(/O)c1ccc(Br)cc1 (stereo not given) | -25.5
O=C(Cc1ccc(Cl)cc1)NCCCN1CCOCC1 | -3.1
NS(=O)(=O)c1ccc(NC(=O)Nc2cccc(Cl)c2)cc1 | 11.6
NS(=O)(=O)c1ccc(CCNC(=O)Nc2cccc(Cl)c2)cc1 | 13.4
O=C(Cn1c2ccccc2c(=O)c2ccccc21)N/N=C/c1cc([N+](=O)[O-])ccc1N1CCCCCC1 | -7
CCOC(=O)C1=C(C)OC(N)=C(C#N)C1c1ccccc1Cl (stereo not given) | 2

Structure (SMILES) | displacement [%]
COc1cc(C2CC(=O)Nc3c2ccc2ccccc32)c(OC)cc1Br (stereo not given) | -2.9
CCOC(=O)c1sc(C)c2c(=O)n(CCc3ccccc3)nnc12 | -7.7
CC(C(=O)O)N1C(=O)/C(=C/c2cccc(Br)c2)SC1=S (stereo not given) | -6.3
O=C(NCc1ccccc1)C1CN(S(=O)(=O)c2ccccc2)CCN1S(=O)(=O)c1ccccc1 (stereo not given) | 9
O=C1N=c2ccc([N+](=O)[O-])cc2=C1c1sc(NS(=O)(=O)c2ccccc2)nc1O | 13
O=C(c1cccc(Br)c1)N1N=C(c2ccc(F)cc2)CC1(O)C(F)(F)F (stereo not given) | 3.9
COc1ccc2c(=O)c(-c3ccccc3OC)c(C(F)(F)F)oc2c1 | 6.3
CCOc1ccc(NC(=O)c2ccc(C#Cc3ccccc3)cc2)cc1 | -9.1
Cc1ccc(/C=C/C(=O)Nc2ccc(S(N)(=O)=O)cc2)cc1 | -8
NS(=O)(=O)c1ccc(NC(=O)c2ccc(Br)o2)cc1 | 8.2
Cc1ccc(C(=O)N2N=C(c3ccccc3)CC2(O)C(F)(F)F)cc1 (stereo not given) | 1.9
OCC1(CO)COC2(CCN(Cc3ccccc3)CC2)N1 | -2.4
CCOC(=O)c1ccc(-c2ccc(/C=C3/SC(=S)N(CC(=O)O)C3=O)o2)cc1 | -83.7
CCN=C(NCC)SC1CC(=O)N(c2cccc(OCC)c2)C1=O (stereo not given) | -3.2
CCC1(C)CC(CCNCc2ccc(N(C)C)cc2)(c2ccc(OC)cc2)CCO1 (stereo not given) | -0.8
Cc1ccc(C(C)C)c(OCC(O)Cn2cnc3cc(C)c(C)cc32)c1 (stereo not given) | 1.1
COC(=O)c1cc(-c2ccc(OC)cc2)nc2ccc(Br)cc12 | -4.1
CC(C)Cn1cc(I)c(=O)n(CC(C)C)c1=O | -7.6
COc1cccc(C=C2C(=O)NC(=O)NC2=O)c1O | 12.7
C=CCOC(=O)C1=C(C)NC(C)=C(C(=O)OCC=C)C1c1ccc(C)o1 | 12.2
CCOC(=O)c1sc(NC(=O)COc2cccc(C)c2C)nc1C | -3.2
CC(C)c1cc(NS(=O)(=O)c2ccc(Cl)cc2)cc(C(C)C)c1O | -2.2

Structure (SMILES) | displacement [%]
CC(C)(C)NCC(=O)NCCNc1ccc([N+](=O)[O-])cc1Cl | -4.8
Cc1cc(=O)[nH]c(SCc2ccc(Cl)cc2Cl)n1 | 14.5
COc1cc([N+](=O)[O-])ccc1NC(=O)CC(C)=O | -5.3
CCOc1ccc2c(c1)C(c1ccccc1C(F)(F)F)CC(=O)N2 (stereo not given) | -5.2
O=C(Nc1ccccn1)c1cc(-c2ccc(Cl)c(Cl)c2)nc2ccccc12 | 10
CC(C)CC(=O)N1CCN(C(=O)COc2ccc3ccccc3c2)CC1 | 1.4
CCCOc1ccc(N2C(=O)CC(N(Cc3ccc(OC)cc3)C(=O)/C=C/C(=O)O)C2=O)cc1 (stereo not given) | 3.3
Cc1ccc(Nc2nnc(-c3ccc(C(=O)NCCO)cc3)c3ccccc23)c(C)c1 | 0.8
COc1ccc2c(c1)CCC/C2=N/NC(=O)c1ccoc1C | 1
COc1ccc(NC(=O)COc2ccccc2OC)c(OC)c1 | 9.6
O=C(O)CCCCCN1C(=O)C(O)=C(C(=O)/C=C/c2ccccc2)C1c1ccc(O)cc1 (stereo not given) | -1.3
COc1ccc(C(=O)N2CCN(C3CCN(Cc4ccccc4)CC3)CC2)cc1OC | -8.5
CC(C)(CO)C(O)C(=O)NCc1ccc(C(=O)O)cc1 (stereo not given) | -3.3
CCOC(=O)c1c(-c2ccccc2)oc2c1C(=O)c1ccccc1C2=O | -0.2
O=C(NCCN1CCN(C(=O)c2ccc([N+](=O)[O-])cc2)CC1)C(=O)Nc1ccc(Cl)cc1 | 16.8
CC(C)c1ccccc1NC(=O)C1C2C=CC(C2)C1C(=O)O (stereo not given) | 9.2
CCc1ccc(CN2CCN(C(=O)CC(C)C)CC2)cc1 | 7.7
CCOC(=O)c1c(NC(C)=O)sc2c1CCC/C2=N/OC(=O)c1ccccc1 | 6.5
O=C(Nc1c[nH]c(=O)[nH]c1=O)c1ccccc1Cl | 0.1
CCC(C(=O)N1CCN(c2cccc(Cl)c2)CC1)c1ccccc1 (stereo not given) | 9.6
Fc1ccccc1CSc1nnnn1-c1ccccc1F | -6
O=C1CC(c2ccccc2)CC2=C1C(c1ccc(Br)cc1)Nc1ccccc1N2 (stereo not given) | -2.5
